{
  "source": "the supplement of paper PMC7826260",
  "note": "Some of the results follow. Viral Rep nickase domains cut single-stranded DNA in vitro (1 h at 37 °C, 3 µM enzyme); the outer parts of the 90-letter strands are left off. The score is log2 (uncut reads / reads without enzyme); the lower, the more was cut; hits are not called. Shares of all reads are compared; where an enzyme cuts many sequences, the uncut ones exceed 0.",
  "data": [
    {"test_system": "T1, Rep nickase domain of tomato golden mosaic virus", "T1 sequence (Rep 1-124, printed without the tag)": "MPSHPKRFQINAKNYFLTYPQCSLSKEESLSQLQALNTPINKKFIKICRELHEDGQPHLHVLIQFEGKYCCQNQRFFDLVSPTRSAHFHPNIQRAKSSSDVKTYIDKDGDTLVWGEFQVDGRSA", "assay": "uncleaved DNA left, log2 of reads against the no-enzyme library (log2 ratio); higher = less cleavage (more negative = more Rep cleavage of the k-mer); sequences stand for … in CTCGTCCG…ACCGGAGA", "procedure": "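A pool of 90-nt single-stranded DNAs with seven random bases just before the constant AC of the nick site (name = the seven bases) was cut by 3 µM recombinant His6-SUMO-tagged Rep nickase domain (300 nM DNA, 50 mM HEPES pH 8.0, 50 mM NaCl, 1 mM MnCl2, 1 h, 37 °C, three replicates). Uncut DNA was amplified and sequenced.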", "values": [
      {"sequence": "CCGAAGG", "uncleaved DNA left (log2)": 0.132},
      {"sequence": "GTAGCTT", "uncleaved DNA left (log2)": 0.0525},
      {"sequence": "GTGGTGC", "uncleaved DNA left (log2)": -0.0197},
      {"sequence": "TCAAGAT", "uncleaved DNA left (log2)": 0.229},
      {"sequence": "CTGGAAT", "uncleaved DNA left (log2)": 0.132},
      {"sequence": "ATAGGGG", "uncleaved DNA left (log2)": 0.142},
      {"sequence": "ATCTTTT", "uncleaved DNA left (log2)": -0.235},
      {"sequence": "TCATGAG", "uncleaved DNA left (log2)": -0.155},
      {"sequence": "TTGATAG", "uncleaved DNA left (log2)": 0.00584},
      {"sequence": "CTAGACG", "uncleaved DNA left (log2)": -0.15},
      {"sequence": "ATGTCAA", "uncleaved DNA left (log2)": 0.0618},
      {"sequence": "GTCCTTT", "uncleaved DNA left (log2)": 0.0736},
      {"sequence": "GCGTCGC", "uncleaved DNA left (log2)": -0.176},
      {"sequence": "TGGAAGC", "uncleaved DNA left (log2)": 0.0597},
      {"sequence": "TGAGTCC", "uncleaved DNA left (log2)": -0.0381},
      {"sequence": "TCTGCAA", "uncleaved DNA left (log2)": -0.0865},
      {"sequence": "TAGGCAG", "uncleaved DNA left (log2)": 0.0843},
      {"sequence": "AAGATTG", "uncleaved DNA left (log2)": 0.182},
      {"sequence": "CAGAATT", "uncleaved DNA left (log2)": -0.144},
      {"sequence": "AACTCAC", "uncleaved DNA left (log2)": -0.164},
      {"sequence": "GTAATCA", "uncleaved DNA left (log2)": 0.047},
      {"sequence": "CACTATC", "uncleaved DNA left (log2)": -0.0205},
      {"sequence": "CTAGTCC", "uncleaved DNA left (log2)": -0.0378},
      {"sequence": "AATTTTA", "uncleaved DNA left (log2)": -0.0913},
      {"sequence": "TTAGGCT", "uncleaved DNA left (log2)": 0.101},
      {"sequence": "TAAGACA", "uncleaved DNA left (log2)": -0.0565},
      {"sequence": "GATACAT", "uncleaved DNA left (log2)": 0.0722},
      {"sequence": "GCTTTGA", "uncleaved DNA left (log2)": 0.0576},
      {"sequence": "GAAGCCG", "uncleaved DNA left (log2)": -0.0636},
      {"sequence": "AGGCCCT", "uncleaved DNA left (log2)": -0.0044},
      {"sequence": "AGATGGA", "uncleaved DNA left (log2)": 0.125},
      {"sequence": "AGGTGCA", "uncleaved DNA left (log2)": 0.0315},
      {"sequence": "TTGACGG", "uncleaved DNA left (log2)": 0.0921},
      {"sequence": "AGCCAGA", "uncleaved DNA left (log2)": -0.0829},
      {"sequence": "ATCAGAA", "uncleaved DNA left (log2)": 0.0928},
      {"sequence": "AATGACC", "uncleaved DNA left (log2)": 0.0833},
      {"sequence": "TAGGAGT", "uncleaved DNA left (log2)": 0.0186},
      {"sequence": "ATATTAT", "uncleaved DNA left (log2)": 0.0632},
      {"sequence": "ATGACAC", "uncleaved DNA left (log2)": -0.18},
      {"sequence": "TAAGCCG", "uncleaved DNA left (log2)": -0.103}
    ]}
  ]
}
